Reference: PubChem BioAssay AID651820 (National Center for Advancing Translational Sciences (NCATS), 2012)
Where “and” joins values, the source holds several entries; their conditions need not be identical. Equal entries are not always repeated. The campaign covered roughly 340,000 compounds. About 12,000 (3.5%) were called active. Inconclusive means that the source gave no clear call. Such entries were picked first, then a sample of the others. The call rests on the fitted dose curve; in most records, active means well fitted inhibition curve with a large enough effect; inconclusive means small, poorly fitted or top-dose-only effect, or another doubt; inactive means no such curve, though single readings can be large or run the other way. Potencies beside an inconclusive call are fits to weak or partial responses and may not hold up.

Experiment: qHTS Assay for Inhibitors of Hepatitis C Virus (HCV)
Conditions: Huh7.5.1 HCVcc-Cre (HCVcc is cell-culture hepatitis C virus) infection, luciferase reporter, 44 h; activity change, negative = inhibition: at 41.8 µM (top of the series) unless noted
Procedure, shortened: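 Infectious HCV cell culture screen: compound-treated cells (1,000/well, pre-plated 4 h) are infected with HCVcc-Cre at roughly 0.5 moi and grown 44 h. Infection is quantified by luciferase signal after 15 min substrate incubation at room temperature.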
On the % scale 0 is the no-effect control and ±100 the full control effect; potency means the concentration at half of the fitted maximal effect; tags describe the fitted curve by direction and shape.

| SMILES | Potency | activity change, negative = inhibition |
| --- | --- | --- |
| COC(=O)c1ccccc1NC(=O)COc1ccc(S(=O)(=O)N2CCCC2)cc1C | inconclusive: 3.98 µM [inhibitor, full curve] |  |
| CCOC(=O)c1cc2c(=O)n3ccccc3nc2n(C(C)C)c1=NC(=O)c1c(-c2c(F)cccc2Cl)noc1C | active: 2 µM |  |
| CC1Cc2ccccc2N1CC(=O)NC(c1ccccc1)c1ccccc1 (stereo not drawn) | inconclusive: 12.6 µM [inhibitor, single point] |  |
| CCCCCn1c(CN2CCN(C(=O)OCC)CC2)nc2c1c(=O)[nH]c(=O)n2C |  | inactive: -3.38% |
| C/C=C\C(=O)Nc1cccc(C2=NOC3(C2)C[C@H](C(N)=O)N(C(=O)Cc2ccc([N+](=O)[O-])cc2)C3)c1 (stereo partly drawn) |  | inactive: -5% |
| CC(=O)c1ccc(-c2[nH]c3ccccc3c2CCN2C(=O)c3ccccc3C2=O)cc1 | inconclusive: 11.2 µM [inhibitor, single point] |  |
| Cc1c(CN2CCCC(C(=O)Nc3cccc(-n4cccn4)c3)C2)cnn1C (stereo not drawn) | inconclusive: 31.6 µM [inhibitor, single point] |  |
| CSc1oc(-c2ccco2)nc1S(=O)(=O)c1ccccc1 |  | inactive: -4.06% |
| CCC1CCCCN1S(=O)(=O)c1ccc(C(=O)Nc2nnc(-c3cccs3)o2)cc1 (stereo not drawn) | inconclusive: 6.31 µM [inhibitor, partial curve] |  |
| O=C(c1cc(C2CC2)nn1-c1ccccc1)N1CCN(c2ccc(O)cc2)CC1 | inconclusive: 3.16 µM [inhibitor, single point] |  |
| COc1ccc(/C=N/Nc2nc(-c3ccc(C)cc3)c(NC(C)=O)s2)cc1OC |  | inactive: 8.88% |
| COc1ccc(C(=O)NCc2ccc(N3CCN(C)CC3)cc2)cc1 | inconclusive: 5.62 µM [inhibitor, single point] |  |
| CCc1c(C)nc2ncnn2c1NCc1cccs1 |  | inactive: -21.7% |
| COc1ccc(C(=O)Nc2ccc3c(c2)OCCO3)cc1S(=O)(=O)N1CCOCC1 | inconclusive: 3.16 µM [inhibitor, single point] |  |
| Nc1ccc(-c2nc3ccc(N)cc3s2)cc1 | inconclusive: 3.16 µM [inhibitor, full curve, poor fit] |  |
| N#CC1=C(N)C(C#N)(C#N)C(c2cccnc2)C2CC(c3ccccc3)CC=C12 (stereo not drawn) |  | inactive: -16.8% |
| Cc1cc(C)c(S(=O)(=O)N2CCOC2CNC(=O)C(=O)NCCc2c[nH]c3ccccc23)c(C)c1 (stereo not drawn) | inconclusive: 31.6 µM [inhibitor, single point] |  |
| CCn1c(C)nc2cc(C(=O)OC(C(F)(F)C(F)F)C(F)(F)C(F)F)ccc21 | inconclusive: 10 µM [inhibitor, partial curve] |  |
| COc1ccc(NC(=O)COc2ccccc2Cc2ccccc2)cc1S(N)(=O)=O | active: 10 µM |  |
| C=CCOC(=O)C1=C[C@H](c2ccc(C(F)(F)F)cc2)[C@@H](CCCO)[C@H](OCC)O1 | inconclusive: 3.55 µM [inhibitor, single point] |  |
| COc1cc(C(=O)Nc2nc3ccc4nc(C)sc4c3s2)cc(OC)c1OC | inconclusive: 0.355 µM [inhibitor, full curve, poor fit] |  |
| O=C(C1=C[C@@H](C2CC2)C[C@@H](OCc2ccc(CO)cc2)O1)N1CCN(Cc2ccc3c(c2)OCO3)CC1 |  | inactive: -17.5% |
| CCc1nnc(NC(=O)CSc2nc3ccccc3s2)s1 |  | inactive: 12.7% |

| SMILES | Potency | activity change, negative = inhibition |
| --- | --- | --- |
| CCOP(=O)(OCC)c1nc(-c2ccc(Br)cc2)oc1N1CCCCC1 | inconclusive: 7.94 µM [inhibitor, partial curve] |  |
| O=C(CN1CCN(Cc2ccccc2)CC1)N1CCCc2c1c(=O)oc1ccc(O)cc21 | inconclusive: 31.6 µM [inhibitor, single point] |  |
| CCCCOc1c(Br)cc(/C=N/O)cc1OCC | inconclusive: 31.6 µM [inhibitor, single point] |  |
| COc1cc(OC)cc(-c2c(-c3ccc(C(C)=O)cc3)c3cc(-c4cccc5[nH]ccc45)ccc3n2C)c1 | inconclusive: 11.2 µM [inhibitor, partial curve] |  |
| Cc1nc(-c2ccc(NC(=O)/C=C\C(=O)O)cc2)cs1 |  | inactive: -0.759% |
| CCN(CC(=O)Nc1ccc(OC)cc1)C(=O)c1ccc2[nH]c3c(c2c1)CC(C)CC3 (stereo not drawn) | inconclusive: 0.501 µM [inhibitor, full curve] |  |
| CCOC(=O)C1(Cc2cccc(Cl)c2)CCCN(C(=O)c2cc(C)n(C)n2)C1 (stereo not drawn) |  | inactive: 0.371% |
| Cn1cc(-c2nc3ccccc3[nH]2)c2ccccc21 | inconclusive: 11.2 µM [inhibitor, single point] |  |
| C/C(=N\Nc1ccccc1)c1cccc(N)c1 |  | inactive: 0.857% |
| Cc1cc(N2CCN(C3CCCC3)CC2)n2c(nc3ccccc32)c1C#N |  | inactive: 35.4% |
| CCCc1nc(SCC(=O)Nc2cc(Cl)ccc2OC)c2c(=O)n(C)c(=O)n(C)c2n1 | inconclusive: 0.501 µM [inhibitor, partial curve, poor fit] |  |
| Cc1occc1-c1nnc(SCC(=O)NC2CCC(C)CC2)o1 (stereo not drawn) |  | inactive: 1.78% |
| N#CC1=C(N)N2C(=C(C#N)C1c1ccc(Br)cc1)Nc1ccccc12 (stereo not drawn) | active: 6.31 µM |  |
| CC1CC(C)CN(CCCNS(=O)(=O)c2ccc3c(c2)oc(=O)n3C)C1 (stereo not drawn) | inconclusive: 22.4 µM [inhibitor, single point] |  |
| Cc1nc2ccccc2n1CC(O)COc1ccccc1Cl (stereo not drawn) | inconclusive: 10 µM [inhibitor, partial curve] |  |
| COc1ccc(CN=C(Nc2ccccc2)SC2CC(=O)NC2=O)cc1 (stereo not drawn) |  | inactive: 13.9% |
| Cc1ccc(/C=N/NC(=S)Nc2cccc(S(=O)(=O)N(C)C)c2)o1 | inconclusive: 22.4 µM [inhibitor, single point] |  |
| COc1ccc(Cl)cc1NC(=O)NC(C)C(C)(C)C (stereo not drawn) | inconclusive: 31.6 µM [inhibitor, single point] |  |
| CCCOc1ccc(S(=O)(=O)Nc2ccccn2)c2ccccc12 |  | inactive: 15% |
| Cc1cc(OCC(=O)NC2CC(C)(C)NC(C)(C)C2)c(C)cc1Br | active: 10 µM |  |
| COc1ccc(-c2nn(C)c(=O)c3ccccc23)cc1NC(=O)Cn1nc(C)c2ccccc2c1=O | inconclusive: 11.2 µM [inhibitor, single point] and inconclusive: 8.91 µM [inhibitor, single point] |  |
| Cc1ccc(C2=CC(=O)C[C@H](c3ccc(Cl)cc3)C2)cc1 |  | inactive: -9.42% |
| O=C(NCCc1csc(-c2ccccc2)n1)c1ccco1 |  | inactive: -29.5% |

| SMILES | Potency | activity change, negative = inhibition |
| --- | --- | --- |
| COc1ccc(Nc2cc(C(=O)NCc3ccco3)c3ccccc3n2)c(OC)c1 | inconclusive: 31.6 µM [inhibitor, single point] |  |
| CCOC(=O)c1c2n(c3ccc(O)cc13)CCC2 | inconclusive: 10 µM [inhibitor, single point] |  |
| Cc1oc(-c2ccccc2F)nc1CS(=O)(=O)CC(=O)NCCCN(C)C1CCCCC1 | inconclusive: 17.8 µM [inhibitor, partial curve, poor fit] |  |
| CCC1(c2ccccc2)NC(=O)N(CC(=O)Nc2cc(S(=O)(=O)N3CCCCCC3)ccc2OC)C1=O (stereo not drawn) | active: 14.1 µM |  |
| COc1cccc2c1C(=O)c1c(O)c3c(c(O)c1C2=O)CC(O)(C(C)=O)CC3OC1CC(N(C)C)C(O)C(C)O1 (stereo not drawn) | active: 0.562 µM |  |
| Cc1cc(Nc2ccccc2)c2c([N+](=O)[O-])cc(C)c(C)c2n1 | inconclusive: 22.4 µM [inhibitor, single point] |  |
| S=C(NCc1ccc(Cl)cc1)Nc1ccncc1 | active: 6.31 µM |  |
| COCCNC(=O)c1ccc2c(=O)n(Cc3ccco3)c(SCC(=O)NC3CCCCC3)nc2c1 | inconclusive: 6.31 µM [inhibitor, partial curve] |  |
| COc1ccc(N2CCN(/C(=N\S(=O)(=O)c3ccccc3)Nc3nc(C)cc(C)n3)CC2)cc1 | inactive |  |
| COc1ccc(Cl)cc1NC(=O)CN(C)C(=O)c1cn(-c2ccccc2)nc1-c1cccnc1 | inconclusive: 20 µM [inhibitor, single point] |  |
| Oc1ccccc1N1CCN(c2ccc3ccccc3n2)CC1 | inconclusive: 31.6 µM [inhibitor, single point] |  |
| Cc1ccc(-c2nn(-c3ccccc3)cc2C(=O)Nc2cccc(S(=O)(=O)N3CCOCC3)c2)cc1 | inconclusive: 14.1 µM [inhibitor, single point] |  |
| CCOC(=O)c1c(NC(=O)COC)sc(C)c1C | inconclusive: 20 µM [inhibitor, single point] |  |
| Cc1ccc(-c2nn(-c3ccccc3)cc2CSC(=N)N)cc1 | inconclusive: 14.1 µM [inhibitor, partial curve] |  |
| CC(C)c1ccc(C2NC(=O)NC3=C2CCc2ccccc23)cc1 (stereo not drawn) | inconclusive: 11.2 µM [inhibitor, single point] |  |
| Cc1nn(CC(C)C)c(Cl)c1C(=O)NC1CCCCC1 | inconclusive: 5.01 µM [inhibitor, single point] |  |
| Cc1ccc(OCc2cc(C(=O)NCCc3cccnc3)no2)cc1C | inconclusive: 3.55 µM [inhibitor, partial curve] |  |
| CN(C)CCCSc1nc(-c2ccccc2)nc2c1CCC2 | inconclusive: 11.2 µM [inhibitor, single point] |  |
| Cc1nn(-c2ccccc2)c(N)c1N=Nc1ccc(Cl)cc1 | inconclusive: 17.8 µM [inhibitor, partial curve] |  |
| CC1CC(C)CN(C(=O)C(C)N2CCN(S(=O)(=O)c3ccc(C(F)(F)F)cc3)CC2)C1 (stereo not drawn) | inconclusive: 31.6 µM [inhibitor, single point] |  |
| CCN(CC(=O)Nc1ccc(OC)cc1)CC(=O)Nc1sc2c(c1C(=O)OC)CCCC2 | active: 7.94 µM |  |
| CCS(=O)(=O)Nc1cccc(C2=NN(S(=O)(=O)c3ccc(F)cc3)C(c3cccs3)C2)c1 (stereo not drawn) |  | inactive: -4.07% |
